Data reported in a collection of fitness landscapes (doi:10.1126/science.1257360).
Some of the results follow.

B1: PhoQ; a variant is named by its letters at X, in order, P23837 (parent)
chain: MKKLLRLFFPLSLRVRFLLATAAVVLVLSLAYGMVALIGYSVSFDKTTFRLLRGESNLFYTLAKWENNKLHVELPENIDKQSPTMTLIYDENGQLLWAQRDVPWLMKMIQPDWLKSNGFHEIEADVNDTSLLLSGDHSIQQQLQEVREDDDDAEMTHSVAVNVYPATSRMPKLTIVVVDTIPVELKSSYMVWSWFIYVLSANLLLVIPLLWVAAWWSLRPIEALAKEVRELEEHNRELLNPATTRELTSLVRNLNRLLKSERERYDKYRTTLTDLTHSLKTPLXXLQXXLRSLRSEKMSVSDAEPVMLEQISRISQQIGYYLHRASMRGGTLLSRELHPVAPLLDNLTSALNKVYQRKGVNISLDISPEISFVGEQNDFVEVMGNVLDNACKYCLEFVEISARQTDEHLYIVVEDDGPGIPLSKREVIFDRGQRVDTLRPGQGVGLAVAREITEQYEGKIVAGESMLGGARMEVIFGRQHSAPKDE

Variants of: B1
Assay: enrichment ratio after two sorts for PhoP signalling (ratio (wild type AVST 3.29)); higher = more functional
Settings: with PhoP (E. coli)

| Variant | enrichment ratio |
| --- | --- |
| HWMH | ≤ 0.25 |
| MWDS | ≤ 0.25 |
| WAAF | ≤ 0.25 |
| IKMC | ≤ 0.25 |
| AWGC | ≤ 0.25 |
| ACYI | 0.618 |
| SKRR | ≤ 0.25 |
| ELKS | ≤ 0.25 |
| PNLI | ≤ 0.25 |
| RWAY | ≤ 0.25 |
| GMNL | ≤ 0.25 |
| KCPR | ≤ 0.25 |
| HLKY | ≤ 0.25 |
| PSDA | ≤ 0.25 |
| DIWL | ≤ 0.25 |
| GQKI | ≤ 0.25 |
| DGCS | ≤ 0.25 |
| RLGR | ≤ 0.25 |
| KMWI | ≤ 0.25 |
| FWFY | ≤ 0.25 |
| VAVP | ≤ 0.25 |
| WPQD | ≤ 0.25 |
| INEQ | ≤ 0.25 |
| YMGM | ≤ 0.25 |
| TYNW | ≤ 0.25 |

| Variant | enrichment ratio |
| --- | --- |
| GRGF | ≤ 0.25 |
| VPLF | ≤ 0.25 |
| TTEQ | ≤ 0.25 |
| FDRG | ≤ 0.25 |
| DHHG | ≤ 0.25 |
| NDYR | ≤ 0.25 |
| LPAD | ≤ 0.25 |
| YAHH | ≤ 0.25 |
| MAPI | ≤ 0.25 |
| HGSQ | ≤ 0.25 |
| YQIH | ≤ 0.25 |
| MVGH | ≤ 0.25 |
| HQCN | ≤ 0.25 |
| VDLQ | ≤ 0.25 |
| RLTC | ≤ 0.25 |
| HSHF | ≤ 0.25 |
| VDVT | ≤ 0.25 |
| HADY | ≤ 0.25 |
| HGQS | ≤ 0.25 |
| QPHL | ≤ 0.25 |
| AVPI | 2.35 |
| DIVH | ≤ 0.25 |
| EMRC | ≤ 0.25 |
| DKHF | ≤ 0.25 |
| GRWK | ≤ 0.25 |

| Variant | enrichment ratio |
| --- | --- |
| VSCF | 1.14 |
| SKHT | ≤ 0.25 |
| IEAP | ≤ 0.25 |
| LTTD | ≤ 0.25 |
| HSTI | 4.66 |
| LVTK | ≤ 0.25 |
| WTSR | ≤ 0.25 |
| DQNN | ≤ 0.25 |
| SNNW | 1.31 |
| TEVV | 12.9 |
| YDKT | ≤ 0.25 |
| KGWK | ≤ 0.25 |
| FFVW | ≤ 0.25 |
| EWFG | ≤ 0.25 |
| PHPA | ≤ 0.25 |
| WFGM | ≤ 0.25 |
| KVHK | ≤ 0.25 |
| LIRI | ≤ 0.25 |
| TAMS | 7.61 |
| PTVA | ≤ 0.25 |
| FYPG | ≤ 0.25 |
| LGWI | 2.54 |
| KCQC | ≤ 0.25 |
| ARIY | ≤ 0.25 |
| VKKH | ≤ 0.25 |

| Variant | enrichment ratio |
| --- | --- |
| KTGV | ≤ 0.25 |
| QPMF | ≤ 0.25 |
| NCFT | ≤ 0.25 |
| RPVD | ≤ 0.25 |
| MSWT | 10.2 |
| EGFT | ≤ 0.25 |
| IGQA | ≤ 0.25 |
| HTMT | ≤ 0.25 |
| STFG | ≤ 0.25 |
| HEPN | 18.8 |
| DTVV | ≤ 0.25 |
| YIWP | ≤ 0.25 |
| YQAM | ≤ 0.25 |
| WPMH | ≤ 0.25 |
| GICV | 8.05 |
| IGHF | ≤ 0.25 |
| LLTV | ≤ 0.25 |
| QHAH | ≤ 0.25 |
| NADC | ≤ 0.25 |
| KNYS | ≤ 0.25 |
| EDNR | ≤ 0.25 |
| QNGL | 1.23 |
| QPIC | ≤ 0.25 |
| AYNF | ≤ 0.25 |
| PNVM | ≤ 0.25 |

| Variant | enrichment ratio |
| --- | --- |
| MTNT | ≤ 0.25 |
| IKKT | ≤ 0.25 |
| RGCT | ≤ 0.25 |
| MIHK | ≤ 0.25 |
| YRLM | ≤ 0.25 |
| HGYM | ≤ 0.25 |
| TCKQ | ≤ 0.25 |
| AIGI | 11.8 |
| LMLA | ≤ 0.25 |
| NWVG | ≤ 0.25 |
| PMRG | ≤ 0.25 |
| QTME | ≤ 0.25 |
| DCRT | ≤ 0.25 |
| ENFF | ≤ 0.25 |
| NEMV | 14.8 |
| CFFT | ≤ 0.25 |
| NLYQ | ≤ 0.25 |
| EEDY | ≤ 0.25 |
| SPLF | ≤ 0.25 |
| PNLS | ≤ 0.25 |
| PARA | ≤ 0.25 |
| VLVA | ≤ 0.25 |
| SKMF | 2.03 |
| YGSN | ≤ 0.25 |
| NCAA | ≤ 0.25 |

| Variant | enrichment ratio |
| --- | --- |
| DLVR | ≤ 0.25 |
| PRGK | ≤ 0.25 |
| QRPF | ≤ 0.25 |
| VVNI | ≤ 0.25 |
| PCCD | ≤ 0.25 |
| QMPI | ≤ 0.25 |
| VHTE | ≤ 0.25 |
| KMTN | ≤ 0.25 |
| PFPG | ≤ 0.25 |
| IHFM | ≤ 0.25 |
| ICRC | ≤ 0.25 |
| NFQI | ≤ 0.25 |
| PFWM | ≤ 0.25 |
| LEFS | 8.31 |
| KFKA | ≤ 0.25 |
| NATW | ≤ 0.25 |
| CVTI | ≤ 0.25 |
| NGHP | ≤ 0.25 |
| RTHS | ≤ 0.25 |
| WLKG | ≤ 0.25 |
| TQCS | 15.1 |
| ADQQ | ≤ 0.25 |
| THST | 7.93 |
| DGST | ≤ 0.25 |
| CSSP | ≤ 0.25 |

| Variant | enrichment ratio |
| --- | --- |
| PGDV | ≤ 0.25 |
| VEEA | ≤ 0.25 |
| YPIL | ≤ 0.25 |
| HYHG | ≤ 0.25 |
| IVPV | ≤ 0.25 |
| RFWT | ≤ 0.25 |
| LHYP | ≤ 0.25 |
| SFGS | ≤ 0.25 |
| AANK | ≤ 0.25 |
| DDGV | ≤ 0.25 |
| KRTV | ≤ 0.25 |
| MNVA | ≤ 0.25 |
| TMSD | 6.3 |
| EDVY | ≤ 0.25 |
| HPPW | ≤ 0.25 |
| VNSA | ≤ 0.25 |
| PYES | ≤ 0.25 |
| ACSN | 4.45 |
| VAKC | ≤ 0.25 |
| KMNR | ≤ 0.25 |
| YPTN | ≤ 0.25 |
| RHEC | ≤ 0.25 |
| KERS | ≤ 0.25 |
| DDPE | ≤ 0.25 |
| YTRV | ≤ 0.25 |

| Variant | enrichment ratio |
| --- | --- |
| TEVQ | 0.253 |
| VCRW | ≤ 0.25 |
| EMPQ | ≤ 0.25 |
| MFKV | ≤ 0.25 |
| EDLN | ≤ 0.25 |
| HSTC | ≤ 0.25 |
| EDRH | ≤ 0.25 |
| IHGY | ≤ 0.25 |
| ADAH | ≤ 0.25 |
| VFGN | ≤ 0.25 |
| HHFP | ≤ 0.25 |
| WFFS | ≤ 0.25 |
| RCET | ≤ 0.25 |
| LGPN | ≤ 0.25 |
| VTPL | ≤ 0.25 |
| HRCF | ≤ 0.25 |
| QIIV | ≤ 0.25 |
| DLMA | ≤ 0.25 |
| YICW | ≤ 0.25 |
| IQNW | ≤ 0.25 |
